Measurements taken from publication PMC6919601, “Identification of Plasmodium dipeptidyl aminopeptidase allosteric inhibitors by high throughput screening” (PLoS ONE, 2019).
Out of some 110,000 compounds screened, about 230 (0.21%) showed an effect of 50% or more. The list shows a part of the results.

Molecular target: DPAP1 (Plasmodium falciparum, UniProt Q8IIJ9)
Assay: primary screen, percent inhibition; read by cleavage of a fluorogenic dipeptide substrate; higher = more effect of the substance
Set-up: species or system P. falciparum D10 trophozoite lysates; single well
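Also: 30 min substrate incubation versus DMSO and 10 µM JCP410 controls.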

Chain of DPAP1 (Q8IIJ9 whole entry, looked up): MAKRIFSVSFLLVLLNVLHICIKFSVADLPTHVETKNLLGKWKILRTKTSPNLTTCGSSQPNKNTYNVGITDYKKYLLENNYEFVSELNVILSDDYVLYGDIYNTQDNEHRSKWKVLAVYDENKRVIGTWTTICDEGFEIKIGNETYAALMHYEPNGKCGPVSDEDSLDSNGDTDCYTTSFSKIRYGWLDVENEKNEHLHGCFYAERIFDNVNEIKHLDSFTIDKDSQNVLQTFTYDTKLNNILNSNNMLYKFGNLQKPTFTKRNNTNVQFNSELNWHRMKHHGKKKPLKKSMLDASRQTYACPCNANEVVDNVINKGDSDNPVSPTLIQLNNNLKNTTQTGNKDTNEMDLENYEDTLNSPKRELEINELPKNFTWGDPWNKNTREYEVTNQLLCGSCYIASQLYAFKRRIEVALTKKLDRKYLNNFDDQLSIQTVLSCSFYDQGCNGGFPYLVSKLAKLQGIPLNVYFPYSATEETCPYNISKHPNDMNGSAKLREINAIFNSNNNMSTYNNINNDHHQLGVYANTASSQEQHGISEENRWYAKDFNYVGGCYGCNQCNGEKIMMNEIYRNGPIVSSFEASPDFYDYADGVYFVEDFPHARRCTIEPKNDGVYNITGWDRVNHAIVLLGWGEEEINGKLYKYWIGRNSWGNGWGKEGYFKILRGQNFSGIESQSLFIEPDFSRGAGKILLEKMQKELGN

SMILES	% Inhibition @ 10 uM
COc1cc(O)c2c(c1N)C(=O)c1ccccc1C2=O	-4.31%
Cc1csc(NC(=O)C2CCCN(S(=O)(=O)c3ccc(Br)s3)C2)n1 (stereo not shown)	-3.21%
O=C(CC1CC2CCC1C2)N1CCN(S(=O)(=O)c2ccc(F)cc2)CC1 (stereo not shown)	1.88%
COC(=O)Nc1nc(-c2ccc3ccccc3c2)cs1	-3.72%
COc1ccc(-c2c(C(=O)O)c3cc(OC)c(OC)cc3c(=O)n2C)cc1O	3.54%
Cc1ccc2oc(=O)c3cnn(CC(=O)NC4CCCc5ccccc54)c3c2c1 (stereo not shown)	3.2%
Cc1ccc(C(=O)CSc2n[nH]c(-c3ccco3)n2)cc1C	-3.4%
CCOCCCNC(=O)CCc1ccc(-n2cnc3cccnc32)cc1	-5.92%
COCCn1c2c(c(=O)[nH]c1=O)C(c1ccc(C(C)C)cc1)C1=C(O)c3ccccc3C1=N2 (stereo not shown)	0.778%
O=C1N/C(=C/c2ccc(Br)s2)C(=O)N1Cc1ccc(Cl)cc1	1.84%
CN(C)c1nc(NC(C)(C)C)nc(Oc2ccc(O)nn2)n1	0.778%
Cc1ccc(CNCc2c(C(=O)O)c(C)n(Cc3ccccc3C)c2C)o1	-0.23%
O=C(c1csc2ccccc12)N1CCN(c2ccccn2)CC1	-4.65%
COCCN(CCOC)c1ncnc2c1c(-c1ccccc1)cn2-c1cccc(C)c1	1.58%
CC(C)CN(CC(C)C)S(=O)(=O)N1CCC(C(=O)NC(C)C)CC1	3.79%
Cc1nnc2c3nnc(C)n3c3cc(Cl)ccc3n12	3%
FC(F)c1cc(-c2ccccc2)[nH]n1	-3.63%
O=C1OC(c2ccccc2F)=N/C1=C\c1cc(Br)cs1	0.607%
Cc1cccc2c1cnn2C(=O)CCC(=O)N1CCC(C)CC1	0.0198%
O=C(O)CSc1c2c(nc3cc(C(=O)NCc4ccc(F)cc4)ccc13)CCCC2	5.21%
COc1ccc(NC(=N)Nc2nc(O)c3c(n2)CCCC3)cc1	-2.98%
c1ccc2c(N3CCCC3)nc(N3CCCC3)nc2c1	-10.8%
CC(=O)c1ccc(Oc2ccc(N)cc2)cc1	-4.35%
CCCCN(CC)CCNC(=O)c1cc2c(-c3ccccc3F)nn(C)c2s1	-5.1%
COc1cc(OC)c(OC)cc1/C=C1\N=C(c2ccc(OC)c(OC)c2)OC1=O	-2.9%
O=C(C1CCN(S(=O)(=O)N2CCOCC2)CC1)N1CCC2(CC1)OCCO2	3.66%
CCOC(=O)C1=C(C)N(CCO)C(=O)NC1c1cc(Cl)cc(Cl)c1OC (stereo not shown)	-1.24%
CCOC(=O)C1=C(CNC(C)CCc2ccccc2)NC(=O)NC1c1ccccc1 (stereo not shown)	-1.3%
